Measured values from the supplement of paper PMC4967469.
A lower IC50 marks a more sensitive line; fits outside the tested doses are given as limits. AUC is the area under the same curve over the 256-fold range up to the top dose, as a fraction; values near 1 show little effect. Where the top dose is marked as inferred, it was calculated from the reported fits.

Key:
Test in all cases: Viability of human cancer cell lines after 72 h of drug (GDSC screen)
NG-25 = compound: CCN1CCN(Cc2ccc(NC(=O)c3ccc(C)c(Oc4ccnc5[nH]ccc45)c3)cc2C(F)(F)F)CC1 [NG-25]; details: top dose 10.24 µM; top dose inferred
Description: (§1)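 Human cancer cell lines in 384-well plates, medium with 10% serum, drug for 72 h over a 256-fold dose range (nine 2-fold or five 4-fold steps up to the top dose). Adherent lines were fixed and stained with the nucleic acid dye Syto60, suspension lines read with resazurin; signal relative to control wells, capped at 0 and 100%. One two-parameter sigmoid per drug and line, fitted in a mixed model over all curves with the slope shared within a line.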

GSK-1904529A = compound: CCc1cc(Nc2nccc(-c3c(-c4ccc(OC)c(C(=O)Nc5c(F)cccc5F)c4)nc4ccccn34)n2)c(OC)cc1N1CCC(N2CCN(S(C)(=O)=O)CC2)CC1 [GSK-1904529A]; details: top dose 1.024 µM; top dose inferred
Description: as §1

PFI-1 = compound: COc1ccccc1S(=O)(=O)Nc1ccc2c(c1)CN(C)C(=O)N2 [PFI-1]; details: top dose 10 µM; top dose inferred
Description: as §1

Tipifarnib = compound: Cn1cncc1[C@@](N)(c1ccc(Cl)cc1)c1ccc2c(c1)c(-c1cccc(Cl)c1)cc(=O)n2C [Tipifarnib]; details: top dose 16 µM; top dose inferred
Description: as §1

Row | Cell Line | AUC (NG-25) | IC50 (NG-25) | AUC (GSK-1904529A) | IC50 (GSK-1904529A) | AUC (PFI-1) | IC50 (PFI-1) | AUC (Tipifarnib) | IC50 (Tipifarnib)
1 | COR-L105 (lung adenocarcinoma, adherent) | 0.746 | 3.87 µM | 0.967 | > 1.02 µM | 0.817 | 7.24 µM | 0.718 | 4.82 µM
2 | RVH-421 (melanoma, adherent) | 0.819 | 8.86 µM | 0.971 | > 1.02 µM | 0.876 | > 10 µM | 0.786 | 9.83 µM
3 | RPMI-7951 (melanoma, adherent) | 0.877 | 9.75 µM | 0.986 | > 1.02 µM | 0.891 | > 10 µM | 0.777 | 6.25 µM
4 | NCI-H292 (lung adenocarcinoma, adherent) | 0.684 | 2.36 µM | 0.973 | > 1.02 µM | 0.717 | 2.98 µM | 0.707 | 4.4 µM
5 | MOG-G-UVW (glioma, adherent) | 0.958 | > 10.2 µM | 0.98 | > 1.02 µM | 0.795 | 4.52 µM | 0.81 | 8.11 µM
6 | SW900 (lung squamous cell carcinoma, adherent) | 0.945 | > 10.2 µM | 0.979 | > 1.02 µM | 0.903 | > 10 µM | 0.884 | > 16 µM
7 | OVMIU (ovary, adherent) | 0.838 | 9.53 µM | 0.974 | > 1.02 µM | 0.809 | 6.84 µM | 0.688 | 3.87 µM
8 | CAL-78 (chondrosarcoma, adherent) | 0.944 | > 10.2 µM | 0.957 | > 1.02 µM | 0.907 | > 10 µM | 0.779 | 7.53 µM
9 | H2369 (mesothelioma, adherent) | 0.972 | > 10.2 µM | 0.949 | > 1.02 µM | 0.9 | > 10 µM | 0.041 | < 0.0625 µM
10 | ESS-1 (endometrium, adherent) | 0.99 | > 10.2 µM | 0.984 | > 1.02 µM | 0.926 | > 10 µM | 0.776 | 5.74 µM
11 | VM-CUB-1 (bladder, adherent) | 0.987 | > 10.2 µM | 0.983 | > 1.02 µM | 0.864 | 8.22 µM | 0.647 | 2.52 µM
12 | SK-MES-1 (lung squamous cell carcinoma, adherent) | 0.904 | > 10.2 µM | 0.978 | > 1.02 µM | 0.83 | 7.03 µM | 0.547 | 1.36 µM
13 | H2731 (mesothelioma, adherent) | 0.573 | 1.04 µM | 0.962 | > 1.02 µM | 0.877 | > 10 µM | 0.779 | 7.55 µM
14 | OAW-28 (ovary, adherent) | 0.849 | > 10.2 µM | 0.963 | > 1.02 µM | 0.861 | > 10 µM | 0.855 | > 16 µM
15 | Hs939-T (melanoma, adherent) | 0.9 | > 10.2 µM | 0.985 | > 1.02 µM | 0.937 | > 10 µM | 0.794 | 8.19 µM
16 | AGS (stomach, adherent) | 0.923 | > 10.2 µM | 0.99 | > 1.02 µM | 0.854 | 6.63 µM | 0.628 | 2.16 µM
17 | NCI-H1435 (lung adenocarcinoma, semi-adherent) | 0.991 | > 10.2 µM | 0.992 | > 1.02 µM | 0.916 | > 10 µM | 0.924 | > 16 µM
18 | KP-2 (pancreas, adherent) | 0.977 | > 10.2 µM | 0.985 | > 1.02 µM | 0.956 | > 10 µM | 0.372 | 0.431 µM
19 | NCI-H2170 (lung squamous cell carcinoma, adherent) | 0.974 | > 10.2 µM | 0.987 | > 1.02 µM | 0.967 | > 10 µM | 0.771 | 6.42 µM
20 | EBC-1 (lung squamous cell carcinoma, adherent) | 0.975 | > 10.2 µM | 0.983 | > 1.02 µM | 0.692 | 2.33 µM | 0.482 | 0.89 µM
21 | NCI-H460 (large cell lung carcinoma, adherent) | 0.855 | 6.97 µM | 0.977 | > 1.02 µM | 0.962 | > 10 µM | 0.651 | 2.5 µM
22 | MFE-296 (endometrium, adherent) | 0.955 | > 10.2 µM | 0.985 | > 1.02 µM | 0.885 | > 10 µM | 0.521 | 1.15 µM
23 | NCI-H2291 (lung adenocarcinoma, adherent) | 0.982 | > 10.2 µM | 0.983 | > 1.02 µM | 0.944 | > 10 µM | 0.976 | > 16 µM
24 | RT-112 (bladder, adherent) | 0.8 | 5.38 µM | 0.981 | > 1.02 µM | 0.972 | > 10 µM | 0.372 | 0.431 µM
25 | IM-95 (stomach, adherent) | 0.852 | 8.77 µM | 0.932 | > 1.02 µM | 0.959 | > 10 µM | 0.432 | 0.642 µM
26 | BFTC-905 (bladder, adherent) | 0.865 | 7.03 µM | 0.978 | > 1.02 µM | 0.661 | 1.63 µM | 0.615 | 1.97 µM
27 | T84 (large intestine, adherent) | 0.954 | > 10.2 µM | 0.987 | > 1.02 µM | 0.987 | > 10 µM | 0.405 | –
28 | HOP-92 (large cell lung carcinoma, adherent) | 0.985 | > 10.2 µM | 0.971 | > 1.02 µM | 0.82 | 6.93 µM | 0.722 | 4.76 µM
29 | CHSA0108 (chondrosarcoma, adherent) | 0.84 | 8.7 µM | 0.97 | > 1.02 µM | 0.805 | 6.02 µM | 0.849 | 15.1 µM
30 | KMRC-1 (kidney, adherent) | 0.957 | > 10.2 µM | 0.983 | > 1.02 µM | 0.934 | > 10 µM | 0.94 | > 16 µM
